Whole data set: some 18,000 sequences, median “TetR repression strength (sort-seq, GFP reporter)” near 0.23, cut for the highest 2% near 0.68. Some of the results follow.
Each sequence was assayed against TetR (class B, Tn10) (UniProt P04483) (assay: TetR repression strength (sort-seq, GFP reporter) (relative to tetO2 = 1); higher = stronger repression). Settings: E. coli.
Chain of UniProt P04483 (P04483 whole entry): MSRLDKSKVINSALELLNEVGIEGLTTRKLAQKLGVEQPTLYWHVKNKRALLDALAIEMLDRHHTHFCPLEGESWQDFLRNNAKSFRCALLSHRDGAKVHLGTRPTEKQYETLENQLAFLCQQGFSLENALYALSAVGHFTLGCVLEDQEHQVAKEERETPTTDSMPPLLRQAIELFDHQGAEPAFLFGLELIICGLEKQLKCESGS
In short: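 In LB with 50 µg/mL chloramphenicol, E. coli SIG10-MAX holding a low-copy library with eight randomized operator positions between a constitutive promoter and sfGFP, plus constitutive TetR, grew for 5 h at 37 °C. FACS then sorted 10^6 cells into 13 fluorescence bins for Illumina sequencing of each bin. Repression strength equals the top bin index plus one less the read-weighted mean bin, normalized to the unaltered operator. Values from three independent transformations were averaged when reads were ≥30 in every replicate and the CV was ≤0.5.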
In the case of TCCCAGGGAGTACAGGAGA, the TetR repression strength was 0.24.
With TCCCTCGAAGTGCTTGAGA the TetR repression strength was 0.406.
In the case of TCCCACATAGTAAGTGAGA, the TetR repression strength was 0.207.
TCCCTCCTAGTGCGCGAGA gave a TetR repression strength of 0.494.
Work on TCCCAGAAAGTCGAAGAGA yielded a TetR repression strength of 0.311.
In the case of TCCCGATAAGTACCGGAGA, the TetR repression strength was 0.0834.
For TCCCGTTCAGTGGTGGAGA, the TetR repression strength was 0.22.
With TCCCTGGGAGTGTAAGAGA the TetR repression strength was 0.187.
Work on TCCCTGAGAGTGGGTGAGA yielded a TetR repression strength of 0.226.
In the case of TCCCGTTCAGTGACAGAGA, the TetR repression strength was 0.504.
TCCCCGAAAGTTGTTGAGA showed a TetR repression strength of 0.435.
TCCCGTCCAGTGTGGGAGA was tested, and the TetR repression strength was 0.295.
TCCCTTTTAGTGTGGGAGA was tested, and the TetR repression strength was 0.317.
Work on TCCCGGTCAGTCGTGGAGA yielded a TetR repression strength of 0.239.
In the case of TCCCTGAGAGTCTGCGAGA, the TetR repression strength was 0.203.
TCCCGAGTAGTGATTGAGA was tested, and the TetR repression strength was 0.527.
In the case of TCCCTGGGAGTTAATGAGA, the TetR repression strength was 0.427.
For TCCCTAAGAGTTATCGAGA, the TetR repression strength was 0.147.
TCCCCGTTAGTGGAAGAGA showed a TetR repression strength of 0.115.
TCCCATACAGTGCGTGAGA showed a TetR repression strength of 0.212.
TCCCGATGAGTGCCCGAGA showed a TetR repression strength of 0.147.
TCCCCCCCAGTCGTGGAGA was tested, and the TetR repression strength was 0.277.
Work on TCCCTTGGAGTGAGGGAGA yielded a TetR repression strength of 0.495.
TCCCAGCCAGTACTTGAGA gave a TetR repression strength of 0.149.
In the case of TCCCGCGCAGTGTTCGAGA, the TetR repression strength was 0.18.
With TCCCGGCCAGTGGGGGAGA the TetR repression strength was 0.268.
TCCCGTTTAGTGGATGAGA showed a TetR repression strength of 0.0216.
Sequence TCCCATCCAGTTTGTGAGA has a TetR repression strength of 0.104.
TCCCTGCGAGTTCTAGAGA gave a TetR repression strength of 0.253.
With TCCCTAAAAGTGAGGGAGA the TetR repression strength was 0.245.
Work on TCCCTAGTAGTTGTAGAGA yielded a TetR repression strength of 0.333.
In the case of TCCCAGGAAGTTGCAGAGA, the TetR repression strength was 0.0428.
TCCCGACGAGTTCACGAGA gave a TetR repression strength of 0.0691.
Sequence TCCCGTGTAGTGCAGGAGA has a TetR repression strength of 0.237.
Work on TCCCGGACAGTCACGGAGA yielded a TetR repression strength of 0.216.
TCCCATGCAGTTTGGGAGA was tested, and the TetR repression strength was 1.07.
For TCCCAGCAAGTTGGGGAGA, the TetR repression strength was 0.297.
With TCCCTTCTAGTGTAAGAGA the TetR repression strength was 0.184.
TCCCCTCCAGTCTCTGAGA was tested, and the TetR repression strength was 0.398.
TCCCCCAGAGTGGGGGAGA gave a TetR repression strength of 0.284.
Sequence TCCCGGGTAGTCTAAGAGA has a TetR repression strength of 0.508.
TCCCACGTAGTGACGGAGA showed a TetR repression strength of 0.0259.
In the case of TCCCAGGTAGTGGTTGAGA, the TetR repression strength was 0.212.
With TCCCTGGGAGTTAGAGAGA the TetR repression strength was 0.832.
TCCCGTAAAGTGGCAGAGA was tested, and the TetR repression strength was 0.155.
In the case of TCCCGTCGAGTGAAGGAGA, the TetR repression strength was 0.311.
TCCCGGAGAGTCGAAGAGA was tested, and the TetR repression strength was 0.542.
With TCCCAAAAAGTAGTCGAGA the TetR repression strength was 0.25.
TCCCGTCCAGTGGCGGAGA showed a TetR repression strength of 0.116.
TCCCGGTTAGTACTCGAGA was tested, and the TetR repression strength was 0.23.
TCCCCATGAGTGGGAGAGA showed a TetR repression strength of 0.294.
TCCCGTTAAGTATGCGAGA showed a TetR repression strength of 0.222.
TCCCATACAGTGCGAGAGA gave a TetR repression strength of 0.37.
TCCCCTGGAGTAGGCGAGA was tested, and the TetR repression strength was 0.0907.
TCCCTACGAGTGTAGGAGA was tested, and the TetR repression strength was 0.14.
TCCCCACAAGTGGTCGAGA was tested, and the TetR repression strength was 0.112.
Sequence TCCCGCAAAGTTACCGAGA has a TetR repression strength of 0.432.
In the case of TCCCTACGAGTGGGAGAGA, the TetR repression strength was 0.0829.
With TCCCGCATAGTTGGGGAGA the TetR repression strength was 0.523.
In the case of TCCCGCTCAGTGGTAGAGA, the TetR repression strength was 0.428.
In the case of TCCCATGTAGTGCGGGAGA, the TetR repression strength was 0.0699.
In the case of TCCCTTTCAGTTAGTGAGA, the TetR repression strength was 0.307.
TCCCTCGTAGTGGATGAGA was tested, and the TetR repression strength was 0.206.
TCCCGCGTAGTGATGGAGA showed a TetR repression strength of 0.264.
For TCCCTCTGAGTAGCTGAGA, the TetR repression strength was 0.338.
TCCCTTTTAGTAATAGAGA gave a TetR repression strength of 0.204.
TCCCGGTAAGTCGGTGAGA gave a TetR repression strength of 0.258.
With TCCCCGTAAGTGTGGGAGA the TetR repression strength was 0.0415.
Work on TCCCGCGCAGTATGTGAGA yielded a TetR repression strength of 0.484.
TCCCGGTTAGTCGCTGAGA was tested, and the TetR repression strength was 0.22.
TCCCGTCGAGTCGGGGAGA gave a TetR repression strength of 0.281.
TCCCGTAAAGTCGCGGAGA gave a TetR repression strength of 0.0415.
Sequence TCCCAGATAGTTTTAGAGA has a TetR repression strength of 0.151.
Sequence TCCCTGTAAGTAATTGAGA has a TetR repression strength of 0.277.
TCCCAGCCAGTTAGCGAGA showed a TetR repression strength of 0.17.
TCCCGCGCAGTTCGGGAGA gave a TetR repression strength of 0.176.
TCCCAATGAGTATCCGAGA showed a TetR repression strength of 0.249.
With TCCCCATCAGTTTCTGAGA the TetR repression strength was 0.348.
TCCCATTAAGTGATCGAGA gave a TetR repression strength of 0.344.
TCCCTTACAGTAACCGAGA showed a TetR repression strength of 0.261.
TCCCTCTAAGTTAAGGAGA gave a TetR repression strength of 0.264.
TCCCCGTGAGTTTCCGAGA gave a TetR repression strength of 0.233.
Sequence TCCCGTGTAGTGGTTGAGA has a TetR repression strength of 0.42.
TCCCGGTGAGTCGGAGAGA was tested, and the TetR repression strength was 0.192.
TCCCGGCGAGTCTTCGAGA showed a TetR repression strength of 0.247.
For TCCCCGGGAGTGAAGGAGA, the TetR repression strength was 0.127.
With TCCCATTGAGTCGACGAGA the TetR repression strength was 0.139.
TCCCAATAAGTGGAAGAGA showed a TetR repression strength of 0.286.
For TCCCAGAGAGTGAGGGAGA, the TetR repression strength was 0.204.
Work on TCCCTGGAAGTGTGTGAGA yielded a TetR repression strength of 0.0653.
Sequence TCCCACGGAGTGGACGAGA has a TetR repression strength of 0.216.
For TCCCACGAAGTCGATGAGA, the TetR repression strength was 0.386.
For TCCCGCGCAGTGGAAGAGA, the TetR repression strength was 0.405.
With TCCCTATTAGTGCGGGAGA the TetR repression strength was 0.21.
For TCCCCCACAGTGAGTGAGA, the TetR repression strength was 0.337.
For TCCCCCAAAGTGATGGAGA, the TetR repression strength was 0.0606.
With TCCCAGTTAGTGTGCGAGA the TetR repression strength was 0.211.
For TCCCGGACAGTCATAGAGA, the TetR repression strength was 0.261.
With TCCCCGTTAGTCAATGAGA the TetR repression strength was 0.396.
TCCCCTTTAGTAGCGGAGA showed a TetR repression strength of 0.203.
In the case of TCCCGGTCAGTTCGTGAGA, the TetR repression strength was 0.17.
For TCCCTGGTAGTGTACGAGA, the TetR repression strength was 0.283.
TCCCAGCTAGTACATGAGA gave a TetR repression strength of 0.487.
TCCCTCGAAGTGATCGAGA gave a TetR repression strength of 0.343.
For TCCCCCGGAGTGGCGGAGA, the TetR repression strength was 0.294.
With TCCCTCTCAGTGGTGGAGA the TetR repression strength was 0.245.
Sequence TCCCGTAAAGTAGTCGAGA has a TetR repression strength of 0.142.
With TCCCGCGTAGTCATGGAGA the TetR repression strength was 0.23.
TCCCGCGTAGTTTTAGAGA gave a TetR repression strength of 0.3.
TCCCCAGTAGTACTAGAGA was tested, and the TetR repression strength was 0.235.
TCCCGGGGAGTACTTGAGA was tested, and the TetR repression strength was 0.142.
TCCCTTGGAGTAACGGAGA showed a TetR repression strength of 0.0447.
Work on TCCCGACGAGTTGGCGAGA yielded a TetR repression strength of 0.122.
For TCCCATCGAGTAAGCGAGA, the TetR repression strength was 0.325.
TCCCTTGGAGTCTGAGAGA gave a TetR repression strength of 0.104.
TCCCGAAAAGTGTACGAGA gave a TetR repression strength of 0.0562.
With TCCCGATTAGTCGGTGAGA the TetR repression strength was 0.116.
TCCCAATAAGTGGGTGAGA gave a TetR repression strength of 0.31.
For TCCCTTGGAGTTTGTGAGA, the TetR repression strength was 0.121.
TCCCTAGGAGTCGATGAGA gave a TetR repression strength of 0.355.
For TCCCAATCAGTTCACGAGA, the TetR repression strength was 0.363.
TCCCCGTGAGTGCATGAGA gave a TetR repression strength of 0.122.
TCCCATACAGTCTAAGAGA was tested, and the TetR repression strength was 0.158.
TCCCCCACAGTTAGAGAGA showed a TetR repression strength of 0.46.
In the case of TCCCAGCAAGTGGTTGAGA, the TetR repression strength was 0.281.
Work on TCCCGCGGAGTGTTAGAGA yielded a TetR repression strength of 0.277.
Sequence TCCCGAAGAGTGTTAGAGA has a TetR repression strength of 0.207.
TCCCGCAAAGTGTCAGAGA gave a TetR repression strength of 0.104.
For TCCCGTTGAGTCGCAGAGA, the TetR repression strength was 0.456.
TCCCTGGAAGTGTTCGAGA was tested, and the TetR repression strength was 0.277.

— a collection of fitness landscapes (doi:10.1038/s41467-024-54723-y)
